The target in assay [1] is CPI80 (survivin, INCENP^1-80, borealin^10-109) (human) (UniProt O15392+Q9NQS7+Q53HL2). Nature of the assay: ITC; 400 µM peptide injected into 50 µM protein; 100 mM NaCl, 20 mM Tris-HCl pH 7.2, 1 mM DTT; 25°C; 1:1 binding model; both purified. Background: In ITC the heat of successive injections is recorded.
For assay [2], the target named is CPI80^(Survivin E65A-H80A) (human) (UniProt O15392+Q9NQS7+Q53HL2). The description is as above.

Sequences of proteins named here, by UniProt entry; tags and fusion partners are left off. A change or cut given only in a name is not applied to a line headed by its entry.
UniProt O15392: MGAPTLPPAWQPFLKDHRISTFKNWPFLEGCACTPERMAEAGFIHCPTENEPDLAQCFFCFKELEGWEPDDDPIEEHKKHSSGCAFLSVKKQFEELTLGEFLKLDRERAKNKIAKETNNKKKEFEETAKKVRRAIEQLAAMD
UniProt Q9NQS7: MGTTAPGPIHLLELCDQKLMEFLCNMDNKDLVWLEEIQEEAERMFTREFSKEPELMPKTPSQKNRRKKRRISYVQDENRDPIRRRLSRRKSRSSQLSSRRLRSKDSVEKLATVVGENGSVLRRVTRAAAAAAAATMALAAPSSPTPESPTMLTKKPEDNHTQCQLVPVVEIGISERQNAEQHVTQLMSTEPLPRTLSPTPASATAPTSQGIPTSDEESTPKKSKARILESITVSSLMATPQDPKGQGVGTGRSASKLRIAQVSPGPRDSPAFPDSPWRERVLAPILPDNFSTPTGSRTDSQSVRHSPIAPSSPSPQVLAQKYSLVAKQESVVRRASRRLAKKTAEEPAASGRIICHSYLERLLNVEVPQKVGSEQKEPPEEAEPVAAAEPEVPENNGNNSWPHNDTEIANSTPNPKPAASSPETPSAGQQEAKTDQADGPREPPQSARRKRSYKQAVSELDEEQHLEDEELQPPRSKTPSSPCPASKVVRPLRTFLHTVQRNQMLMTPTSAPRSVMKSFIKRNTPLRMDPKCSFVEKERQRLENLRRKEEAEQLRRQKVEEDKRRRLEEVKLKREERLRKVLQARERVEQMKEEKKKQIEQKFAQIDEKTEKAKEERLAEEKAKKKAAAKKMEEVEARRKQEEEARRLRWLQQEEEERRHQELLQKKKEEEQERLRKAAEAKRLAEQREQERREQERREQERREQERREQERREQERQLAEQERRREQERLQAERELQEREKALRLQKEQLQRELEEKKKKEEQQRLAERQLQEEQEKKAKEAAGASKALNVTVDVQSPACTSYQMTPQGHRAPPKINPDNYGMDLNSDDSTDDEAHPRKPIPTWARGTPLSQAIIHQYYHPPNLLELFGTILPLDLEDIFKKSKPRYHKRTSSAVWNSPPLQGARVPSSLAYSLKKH
UniProt Q53HL2: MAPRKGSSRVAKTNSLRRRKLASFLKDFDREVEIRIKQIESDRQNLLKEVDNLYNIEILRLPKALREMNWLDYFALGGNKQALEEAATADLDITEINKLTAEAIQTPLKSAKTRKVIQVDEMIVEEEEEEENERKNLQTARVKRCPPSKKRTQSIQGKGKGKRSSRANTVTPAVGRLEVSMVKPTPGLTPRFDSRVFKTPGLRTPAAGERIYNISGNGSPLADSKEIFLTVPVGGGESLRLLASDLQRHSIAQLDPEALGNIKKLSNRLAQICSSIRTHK

These are yes or no findings as the source states them, for the method shown.

Take KKTESHHKAKG (phosphothreonine at 121) [H2ApT121 (119–129) phosphopeptide]: the binding result in assay [1] is “no binding (tested: 50 µM protein, 400 µM peptide)”.

With ARTKQTARKSTG [H3 (1–12) peptide], the binding result in assay [2] is “no binding (tested: 50 µM protein, 400 µM peptide)”.

As for KKTESHHKAKG [H2A (119–129) peptide], the binding result in assay [1] was “no binding (tested: 50 µM protein, 400 µM peptide)”.

As to ARTKQTARKSTG (phosphothreonine at 3) [H3pT3 (1–12) phosphopeptide], the binding result in assay [2] is “no binding (tested: 50 µM protein, 400 µM peptide)”.
